# This is one part of the list. At the low end of the ranking the order means little.
# Molecular target: SIX1-Q177R homeodomain (UniProt Q15475)
# Test: universal protein binding microarray
# Details: Universal all-10-mer PBM (8x60K, AMADID 030236), 300 nM GST-tagged protein, Alexa Fluor 488 anti-GST; buffer, salt, pH and temperature not stated; high values mean tight binding; most listed sequences are background and not binding sites; double strand, one strand shown
row,Sequence,binding signal [E-score]
1,AATGTATC,-0.068
2,TATGACGA,0.00709
3,AGAAACAC,0.408
4,CTCCTAGA,-0.137
5,CAGCAGCC,-0.145
6,AGGGCAGC,-0.162
7,CAAGTACC,0.0928
8,AGAGCCGC,-0.224
9,ATCTAATC,-0.139
10,AAGATTGT,-0.202
11,CTCGCTAA,0.0527
12,ATAGCAAC,-0.202
13,AAAAAACC,-0.0855
14,CCGGTGCC,0.0663
15,GGGTATAA,0.152
16,CATCGACC,-0.145
17,AATATAAG,-0.0508
18,CTCACGCC,0.0175
19,ATTTCAGA,-0.205
20,AGCGCGGA,-0.123
21,CCCTTGCG,0.126
22,GAGACAAC,0.152
23,AAAGATTG,-0.129
24,AAATGGTA,0.0115
25,CACACGGC,0.161

row,Sequence,binding signal [E-score]
1,CTAAGCAC,0.0366
2,AGTTTAAT,-0.102
3,AACACGAA,0.305
4,CCATTCGC,-0.0445
5,CCCGAGGC,-0.0201
6,AACAACTC,-0.0385
7,GATTTCAA,-0.215
8,CCACCTGA,-0.0436
9,CTCTAACC,-0.0797
10,ATGCTTGC,-0.282
11,CCAATGGG,0.0599
12,AACTTATA,-0.109
13,ACGCTTGA,0.0448
14,AATTACGC,0.0276
15,AGAACTAT,-0.321
16,ACCTCAAT,-0.172
17,ATTCACAC,0.348
18,CTGCTTGA,0.0612
19,TAACGGCA,-0.0758
20,CCACGAAC,-0.00927
21,CGACCTAA,-0.0178
22,GGTCAACC,-0.0551
23,CTTTTAAA,-0.189
24,TGGTTACA,0.139
25,GTCGCACA,0.0027

row,Sequence,binding signal [E-score]
1,ATGCTAGC,-0.107
2,ACGCAGTC,-0.175
3,CCGATTGA,-0.0656
4,CCGGCAGA,-0.259
5,CGTTCCAG,-0.11
6,CCCCCCCC,0.188
7,ATACGAAC,-0.128
8,AAGAAGCA,-0.0616
9,ACTCGGTA,0.0668
10,GACGCGTC,-0.14
11,ATCCCAGC,-0.0105
12,ATAGGCCC,-0.154
13,AAGCCTAA,-0.203
14,ACTTGCCG,-0.0248
15,ATGTGAAC,-0.0733
16,GCCGGCCC,-0.198
17,ATCAACAA,-0.00379
18,GTGATTTA,-0.0364
19,ACCACGCG,0.0189
20,GACTCCGC,0.254
21,CTAGGCCC,-0.113
22,AACCAACA,0.0313
23,AAACAGTC,-0.245
24,CGTTTTAA,-0.151
25,AGTTCAAA,-0.212

row,Sequence,binding signal [E-score]
1,GTAAGCGA,-0.0281
2,ATGGATAA,0.0967
3,CCCCACAA,0.134
4,GCTCCTAA,-0.146
5,GTGTCATA,0.458
6,CTAGTAGC,-0.109
7,ATAACTAC,-0.00616
8,GATACGCC,0.126
9,CTATGCCA,-0.163
10,CACGCTAG,0.0298
11,CGTCCAAG,-0.195
12,TAAAGCAA,-0.108
13,CCGGGAAA,-0.131
14,GTAATTAA,-0.0612
15,AGGCTTTC,-0.196
16,CGACGGAC,-0.0755
17,GGGACAAC,-0.16
18,GGTTGAGA,0.0273
19,CCGGAGAC,0.133
20,CCCTAAAG,0.062
21,ATTCCACA,0.0662
22,AACTTGGT,0.148
23,AAGCCCTT,-0.216
24,GGGCACGA,-0.0652
25,CAAGTCGC,-0.177

row,Sequence,binding signal [E-score]
1,TCTGATCA,-0.148
2,GTGCCAAA,0.00531
3,AGGTGTGG,0.371
4,GGGTCTAC,0.111
5,CATTCTGA,-0.252
6,GTAGGTTA,0.0216
7,GACCGCAC,0.0605
8,CCTGTTCA,0.0899
9,GTTGTGAA,-0.0327
10,ACGTAACT,-0.000265
11,CCGAGTAC,0.189
12,GTCCCATA,-0.0453
13,ATTCTCAG,-0.278
14,ACCTTAAA,-0.0918
15,CGCTTAAC,-0.0319
16,ACGTTTGC,-0.107
17,ACCAGACT,-0.0211
18,AATAGTAG,0.0292
19,CACGTCTG,0.0141
20,ACCCATCA,-0.0284
21,CTTAAGTA,-0.133
22,GAAACAGC,-0.187
23,CACCATGG,0.343
24,TGAGTTAA,-0.216
25,AGTGCGTG,0.245

row,Sequence,binding signal [E-score]
1,CAAAGGCA,-0.0382
2,CCCACGGG,0.00181
3,ACGTGGGG,0.0512
4,CCAGCCCG,-0.0377
5,ATCGATGA,-0.0679
6,CGGCACTA,-0.00083
7,GGTTTTGA,0.0273
8,TACTGAGA,-0.0916
9,CTTTGTGC,0.0271
10,CAAGCGTC,0.0653
11,CGCTGCAG,-0.179
12,CTCCTGTC,-0.155
13,CTGCCCAA,0.0619
14,CGTCCTAG,-0.0984
15,ATTCGCCG,-0.013
16,CCTGAAAC,-0.0258
17,ACGGTATA,0.0934
18,AGTCACGA,0.043
19,AAGCGGAC,-0.157
20,ATAAGTAG,-0.0228
21,CATCGTGC,0.0308
22,GCGACCCA,-0.0871
23,GATACGAC,0.0322
24,CAGGTCAC,0.0233
25,AAAACGAA,-0.0683

row,Sequence,binding signal [E-score]
1,CGCTTGGA,0.103
2,GAACACTA,0.356
3,AATAATCT,-0.169
4,AGTGGCCG,-0.14
5,ATATAGAA,-0.122
6,CATCGTCA,-0.213
7,AACTAAGA,0.0623
8,GCACGGGC,0.0283
9,GCCGATGA,-0.181
10,TCTCTGCA,-0.124
11,AATCCGGG,0.113
12,AGCCCCTC,-0.0226
13,GAGGGGAC,0.2
14,AGCTCAAT,-0.179
15,TTTGCAAA,-0.0796
16,CCGGTCCC,0.0295
17,GACATGGA,-0.171
18,GGGCGGAA,-0.198
19,CTAAGCGA,-0.232
20,CGTTCGTA,-0.199
21,ATCCATTA,0.0357
22,GATCTCCA,-0.124
